# Reference: PubChem BioAssay AID1030 (National Center for Advancing Translational Sciences (NCATS), 2008)
# Hit rate of the full screen: of about 220,000 compounds, about 16,000 (7.3%) were called active. The inconclusive results got no clear call from the source; some entries with a clear call stand among them for comparison. Calls follow the shape of the dose curve; as a rule, active = well fitted inhibition curve with a large enough effect (not every such curve was filed as active); inconclusive = small, poorly fitted or top-dose-only effect, or another doubt; inactive = no such curve, though single readings can be large or run the other way. No potency is given beside an inconclusive call; the fits are too rough.
# Biological target: Aldehyde dehydrogenase 1A1 (Homo sapiens) (UniProt P00352)
# Experiment: qHTS Assay for Inhibitors of Aldehyde Dehydrogenase 1 (ALDH1A1);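 as to activity, negative = inhibition: plate controls were no enzyme wells and a reference inhibitor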
# Conditions: Purified ALDH1A1, NADH fluorescence, propionaldehyde substrate; series mostly up to 75.3 µM; activity, negative = inhibition: at the top concentration
# Potency is read from the fitted curve at half-maximal effect; tags tell the direction and shape of the fitted curve.
# UniProt P00352, sequence (P00352 whole entry, looked up): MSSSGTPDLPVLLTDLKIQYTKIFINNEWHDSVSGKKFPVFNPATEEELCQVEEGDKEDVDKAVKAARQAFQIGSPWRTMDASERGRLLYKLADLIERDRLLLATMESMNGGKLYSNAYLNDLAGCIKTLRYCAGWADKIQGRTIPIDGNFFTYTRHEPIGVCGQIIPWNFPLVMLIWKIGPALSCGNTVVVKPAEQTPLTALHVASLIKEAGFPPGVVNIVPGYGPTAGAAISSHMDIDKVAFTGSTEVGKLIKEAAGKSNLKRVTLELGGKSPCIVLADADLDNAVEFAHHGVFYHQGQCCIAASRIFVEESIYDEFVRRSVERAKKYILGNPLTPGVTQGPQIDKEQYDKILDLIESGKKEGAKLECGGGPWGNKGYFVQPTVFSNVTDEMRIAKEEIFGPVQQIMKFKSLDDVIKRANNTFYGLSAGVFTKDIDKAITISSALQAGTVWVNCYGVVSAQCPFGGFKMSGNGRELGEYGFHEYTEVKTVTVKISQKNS
Compound,Potency,"activity, negative = inhibition"
Cc1cc2ncn(CCC(=O)NC(C)(C)C)c2cc1C,"inconclusive [inhibitor, partial curve]",
CCN1CCN(c2ncnc3c2oc2nc(C(C)C)c4c(c23)CCC4)CC1,,inactive: -2.47%
O=c1cc(-c2ccccc2)c2ccc(O)c(CN3CCCCC3)c2o1,"inconclusive [inhibitor, single point]",
O=C(Nc1cccc2ccccc12)N1CCN(Cc2ccccc2)CC1,"inconclusive [inhibitor, single point]",
CCOc1ccccc1CN1CCN(S(=O)(=O)CC)CC1,,inactive: -9.23%
CCC1CCc2c(sc(NC(=O)C3CC=CCC3C(=O)O)c2C#N)C1 (stereo unspecified),active: 1.78 µM,
Brc1ccc2ncnc(Nc3cccc4ccccc34)c2c1,"inconclusive [inhibitor, partial curve]",
C=CCOc1ccc(C2NC(=S)NC(C)=C2C(=O)c2ccccc2)cc1OC (stereo unspecified),"inconclusive [inhibitor, partial curve]",
CCn1c(COc2ccc(Cl)cc2)nnc1SCC(=O)Nc1ccc2c(c1)OCCO2,"inconclusive [inhibitor, single point]",
Cc1nc(Cl)c2c(n1)NC1=C(O2)C(=O)CCC1,,inactive: -0.807%
O=C1NC(O)=NC1(c1ccccc1)c1ccccc1,,inactive: -4.18%
CCC(CC)C(=O)Nc1nc(-c2ccc3c(c2)CCN3C(=O)C2CC2)c(C)s1,"inconclusive [inhibitor, single point]",
CCOc1ncccc1C(=O)Nc1nnc(C)s1,"inconclusive [inhibitor, single point]",
C=CCc1cccc(/C=N/c2nc3ccccc3n2CC)c1O,,inactive: 15.1%
CCCCn1c(-c2ccco2)nc2ccccc2c1=O,"inconclusive [inhibitor, single point]",
O=C(CN1C(=O)COc2ccccc21)NCCC1=CCCCC1,"inconclusive [inhibitor, single point]",
O=S(=O)(c1c(F)cccc1F)N1CCN(C(=S)NCc2ccc3c(c2)OCO3)CC1,active: 3.98 µM,
COc1ccc(OCC(=O)Nc2ccc(Cl)cc2)cc1,"inconclusive [inhibitor, single point]",
CC(C)C(=O)Cc1ccc2ccccc2n1,,inactive: -0.351% [at 13.5 µM]
Cc1cccc(CSc2nc(N)c(C#N)c(-c3cccs3)c2C#N)c1,"inconclusive [inhibitor, partial curve]",
N#CC1=C(N)Oc2n[nH]c(-c3cccs3)c2C1C1CCCCC1 (stereo unspecified),,inactive: -7.74%
CCN(CC)C(=O)CSc1nnc(CNc2ccc(F)cc2)n1-c1ccccc1,"inconclusive [inhibitor, single point]",
COc1ccc(-n2c(C)cc(C(=O)NC3CCCCC3)c2C)cc1,active: 7.94 µM,
CCC(C)(C)n1nnnc1C(c1cc2ccc(OC)cc2[nH]c1=O)N1CCc2ccccc2C1 (stereo unspecified),"inconclusive [inhibitor, partial curve]",

Compound,Potency,"activity, negative = inhibition"
O=C(CN1CCN(C(=O)N2CCCCC2)CC1)Nc1ccc(F)cc1,"inconclusive [inhibitor, single point]",
COc1ccc(C2C(C(C)=O)=C(C)N=c3s/c(=C\c4cc(C)n(C)c4C)c(=O)n32)c(OC)c1 (stereo unspecified),,inactive: -6.63%
Cc1cc(/C=C2/SC(=O)N(CC(=O)N3CCOCC3)C2=O)c(C)n1-c1ccccc1F,"inconclusive [inhibitor, single point]",
Cc1cc(O)c(/C=N/Nc2ccccc2)c(=O)o1,active: 7.94 µM,
COC(=O)CC(=O)CSc1nc2c(cc1C#N)CCCCC2,"inconclusive [inhibitor, partial curve]",
C=CCn1c(=O)[nH]c2cc(C(=O)N3CCN(c4ccc(C(C)=O)cc4)CC3)ccc2c1=O,"inconclusive [inhibitor, single point]",
Cc1ccc(SC(C)c2nc(-c3ccncc3)no2)cc1 (stereo unspecified),"inconclusive [inhibitor, single point]",
Cc1[nH]n(-c2ccccc2)c(=O)c1/C=N/NC(=O)C(C)C,active: 25.1 µM,
Cc1cc(C)c2c(CN3CCN(Cc4ccc5c(c4)OCO5)CC3)cc(=O)oc2c1C,active: 1.58 µM,
CCC(=O)Nc1ccc(C(=O)CSc2nnc(-c3ccc(NS(C)(=O)=O)cc3)n2C)cc1OC,"inconclusive [inhibitor, single point]",
COC(=O)c1sccc1Oc1ccc(F)cc1[N+](=O)[O-],,inactive: -1.3%
Cc1cc(C)nc(NC(=O)CSc2nc3ccccc3o2)n1,"inconclusive [inhibitor, single point]",
COC(=O)CC1C(=O)NCCN1C(=O)CSc1nc2ccccc2c(=O)n1CC(C)C (stereo unspecified),"inconclusive [inhibitor, single point]",
COc1ccc(C(=O)NNC(=O)c2ccc(S(=O)(=O)N3CCCCC3)cc2)cc1,"inconclusive [inhibitor, partial curve]",
O=C(NNC(=S)NC1CCCCC1)c1sc2ccccc2c1Cl,active: 22.4 µM,
CC1CC(=O)C2=C(C1)Nc1nc3ccccc3n1C2c1cccnc1 (stereo unspecified),"inconclusive [inhibitor, partial curve]",
OCCNCc1ccc(OCc2ccc(Cl)cc2Cl)cc1,,inactive: 4.75%
COC(=O)c1cc(NC(=O)c2nn(C)c(=O)c3ccccc23)cc(C(=O)OC)c1,,inactive: -2.63%
N#C/C(=N\Nc1ccccc1[N+](=O)[O-])C(=N)N1CCCCC1,"inconclusive [inhibitor, partial curve]",
CC(=O)c1ccc(C(=O)N2CCCC(C(=O)c3cc(F)ccc3F)C2)s1 (stereo unspecified),"inconclusive [inhibitor, single point]",
CC(C)(C)NC(=O)C(c1ccncc1)N(Cc1ccco1)C(=O)c1ccc(-c2ccccc2)[nH]1 (stereo unspecified),"inconclusive [inhibitor, single point]",
Cc1ccn2c(CNCCn3nc(C)cc3C)c(C(=O)N3CCCCCC3)nc2c1,"inconclusive [inhibitor, single point]",
COCc1cc(C)n(CC(=O)Nc2ccc(Cl)cc2Cl)c(=O)c1C#N,"inconclusive [inhibitor, partial curve, poor fit]",
C/C(=N\NC(=O)NC1CCCCC1)c1ccc(OC(F)F)cc1OC(F)F,,inactive: -6.28%

Compound,Potency,"activity, negative = inhibition"
NN1C(=O)/C(=C\c2ccco2)SC1=S,active: 1.26 µM,
O=C(NC1CCCCC1)c1cc(F)cc2c1OCOC2,"inconclusive [inhibitor, single point]",
CCn1c(SCC(=O)c2c(N)n(C)c(=O)n(C)c2=O)nnc1-c1ccccc1,,inactive: 5.33%
O=c1cc(Cn2ccnc2)c2cc3c(cc2o1)CCC3,"inconclusive [inhibitor, single point]",
COc1ccc2cc3cc(C(=O)NCC4COc5ccccc5O4)oc3nc2c1 (stereo unspecified),"inconclusive [inhibitor, partial curve]",
Clc1cccc(-c2ccc(C=Nc3ccc(N4CCOCC4)cc3)o2)c1,"inconclusive [inhibitor, single point]",
CS(=O)(=O)N(CC(=O)O)c1cccc(Cl)c1,"inconclusive [inhibitor, single point]",
COCCN1Cc2cccc(C(=O)Nc3cc(OC)ccc3OC)c2C1=O,"inconclusive [inhibitor, partial curve, poor fit]",
CC(=O)Nc1ccccc1O,,inactive: 5.78%
CCn1c(SCC(=O)Nc2nc3c(s2)CCCC3)nc2c1c(=O)n(C)c(=O)n2C,"inconclusive [inhibitor, single point]",
Cc1ccc2nc3c(cc(C(N)=S)c(=N)n3CCCOC(C)C)c(=O)n2c1,"inconclusive [inhibitor, partial curve]",
COc1ccc(/C=C/C(=O)OCC(=O)Nc2ccc(S(N)(=O)=O)cc2)cc1OC,"inconclusive [inhibitor, partial curve]",
Cc1oc(-c2ccccc2)cc1C(=O)Nc1cccc(C(=O)O)c1,"inconclusive [inhibitor, single point]",
Cc1cccn2c(=O)c3cc(C#N)c(=O)n(CCCN4CCOCC4)c3nc12,"inconclusive [inhibitor, partial curve]",
CCN(CC)C(=O)Oc1ccc2c(=O)c(-c3ccc(OC)cc3)c(C)oc2c1,active: 14.1 µM,
CCCCCC1C(=O)C[C@@H]2CCN3C(=O)CCC[C@H]1[C@H]23 (stereo partly specified),"inconclusive [inhibitor, partial curve]",
CCC(C)NC(=O)CC(NS(=O)(=O)c1ccc(C)cc1)c1ccc(OC)cc1 (stereo unspecified),"inconclusive [inhibitor, single point]",
Cn1cccc1Cc1nnc(SCC(=O)Nc2ccccc2)n1-c1ccc(F)cc1,"inconclusive [inhibitor, single point]",
COc1cccc(C(=O)CSc2nnnn2C)c1,,inactive: 4.51%
Cc1cc(C)n(-c2nc3ccccc3nc2N2CCN(C(=O)c3ccccc3)CC2)n1,active: 12.6 µM,
CCOC(=O)c1c(C)[nH]c(C(=O)COC(=O)CNC(=O)c2ccc(Cl)cc2Cl)c1C,,inactive: 0.122%
CC(C)(C)n1nc(-c2ccc(F)cc2)c2c(N)ncnc21,"inconclusive [inhibitor, partial curve]",
Cc1cc(/C=N/Nc2ccc([N+](=O)[O-])cn2)c(C)n1-c1ccccc1,"inconclusive [inhibitor, partial curve, poor fit]",
